# Laboratory results from PubChem BioAssay AID1508623 (National Center for Advancing Translational Sciences (NCATS), 2021).
# Screen size: about 48,000 compounds; about 450 (0.94%) were called active. The shares of active, inactive and inconclusive entries below differ from those in the screen. Calls come from the whole dose curve; as a rule, active = well fitted inhibition curve with a large enough effect; inconclusive = small, poorly fitted or top-dose-only effect; inactive = no such curve, though single readings can be large or run the other way. Potencies of inconclusive entries are doubtful fits and often do not repeat.
# Experiment: Primary qHTS for Identification of Small Molecule Inhibitors of Huntingtin Promoter Activity; note: nearly all actives have a fitted effect of over 50% in size
# Conditions: HEK293 HTT promoter firefly luciferase reporter (activity 0% = vehicle and -100% = no light), 24 h; series mostly up to 57.5 µM
# Procedure, shortened: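 HEK293 luciferase promoter-reporter cells (2,500/well) plated 24 h, then compounds added at up to 57.5 uM final for 24 h at 37 °C. Firefly luminescence by Dual-Glo, normalized to vehicle (0%) and zero RLU (-100%).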
# Potency is the fitted concentration of half-maximal effect; tags give direction and shape of the fitted curve.
row,Compound,Potency
1,COc1ccccc1Nc1nc(-c2ccccc2F)nc2ccccc12,"inconclusive: 20 µM [inhibitor, partial curve, poor fit]"
2,CCc1ccc(NC(=O)c2cnn(-c3ccccc3)c2-n2cccc2)cc1,"inconclusive: 17.8 µM [inhibitor, single point]"
3,COc1cc2ccccc2cc1C(=O)Nc1cccc(-c2nc3cc(C)c(C)cc3o2)c1,active: 7.08 µM
4,COC(=O)c1c(NC(=O)c2ccc(S(=O)(=O)N3CCC(C)CC3)cc2)sc2c1CCN(C)C2,"inconclusive: 39.8 µM [inhibitor, single point]"
5,Cc1cc(C)c(NC(=O)C2CCN(c3nc4ccccc4n4cccc34)CC2)c(C)c1,inactive
6,CN(C(=O)CSc1nnc(NC(=O)Nc2ccccc2)s1)c1ccccc1,"inconclusive: 39.8 µM [inhibitor, partial curve, poor fit]"
7,O=C(NCC(c1cccnc1)N1CCc2ccccc21)c1cccc(Br)c1 (stereo unspecified),"inconclusive: 22.4 µM [inhibitor, partial curve, poor fit]"
8,CC(C)NC(=O)C1CCC(Cn2c(=O)c3sccc3n(Cc3ccc(F)cc3)c2=O)CC1 (stereo unspecified),inactive
9,CC(C)(C)c1ccc(/C=C/C(=O)Nc2ccc(S(N)(=O)=O)cc2)cc1,"inconclusive: 39.8 µM [inhibitor, single point]"
10,COc1ccc(Cn2c(C(=O)O)c(CNCCc3ccco3)c3ccc(OC)cc32)cc1,inactive
11,O=C1CS(=O)(=O)C2(C(=O)N(Cc3ccccc3Cl)c3ccccc32)N1c1ccc(F)cc1 (stereo unspecified),"inconclusive: 20 µM [inhibitor, single point]"
12,CCOc1cccc(NC(=O)C2CC(=O)N(CC)C(=Nc3ccc(F)cc3)S2)c1 (stereo unspecified),inactive
13,COC(=O)c1c(-c2ccc(Cl)cc2)noc1N1CCN(c2cc(C)ccc2C)CC1,inactive
14,CCOc1ccc(CCNC(=O)c2cc3cccc4c3n2CCS4)cc1,"inconclusive: 11.2 µM [inhibitor, partial curve, poor fit]"
15,COc1ccc(N2CCN(c3ncnc4c3cnn4C)CC2)cc1,"inconclusive: 31.6 µM [inhibitor, single point]"
16,COCCCNC(=O)c1cc2cc(S(=O)(=O)N3CCCCC3)ccc2n1C,"inconclusive: 14.1 µM [inhibitor, partial curve, poor fit]"
17,CC[C@H]1OC(=O)[C@H](C)[C@@H](O[C@H]2C[C@@](C)(OC)[C@@H](O)[C@H](C)O2)[C@H](C)[C@@H](O[C@@H]2O[C@@H](C)C[C@H](N(C)C)[C@@H]2O)[C@](C)(O)C[C@@H](C)C(=O)[C@H](C)[C@@H](O)[C@]1(C)O,inactive
18,C=Cc1ccc(Cn2c(C(=O)O)c(CNCc3ccc(F)cc3)c3ccc(C)cc32)cc1,"inconclusive: 20 µM [inhibitor, single point]"
19,COCCn1c(=O)[nH]c2cc(C(=O)N3CCN(c4ccc(Cl)cc4)CC3)ccc2c1=O,"inconclusive: 14.1 µM [inhibitor, partial curve, poor fit]"
20,Cc1ccc2nc(NC(=O)c3nc(SCc4ccccc4F)ncc3Cl)sc2c1,inactive
21,O=C(CSc1nc(=O)n(Cc2cccnc2)c2c1CCC2)Nc1cccc(Cl)c1,"inconclusive: 28.2 µM [inhibitor, partial curve]"

row,Compound,Potency
1,CC1CCCN(c2ncnc3c2cnn3-c2ccc(F)cc2)C1 (stereo unspecified),"inconclusive: 0.0794 µM [inhibitor, full curve, poor fit]"
2,Cc1cccc(N(C)S(=O)(=O)c2ccc(-c3cc(C)no3)s2)c1,"inconclusive: 12.6 µM [inhibitor, partial curve, poor fit]"
3,Cc1ccc(S(=O)(=O)N2CCc3cc(C(=O)N(C)Cc4ccccc4)ccc32)cc1,"inconclusive: 15.8 µM [inhibitor, partial curve, poor fit]"
4,COc1ccc(S(=O)(=O)c2c(O)c(C)cc(NS(=O)(=O)c3ccc(Cl)cc3)c2C(C)C)cc1,"inconclusive: 20 µM [inhibitor, single point]"
5,Cc1ccc(NC(=O)CSc2nc3ccc(Br)cc3[nH]2)c(C)c1,"inconclusive: 28.2 µM [inhibitor, partial curve]"
6,CC1=C(c2ccc(C(C)C)cc2)S(=O)(=O)NC1=NCc1ccccc1C,"inconclusive: 14.1 µM [inhibitor, partial curve, poor fit]"
7,CCOc1ccc(N(Cc2ccccc2)C(=O)c2nc(SCC)ncc2Cl)cc1,"inconclusive: 28.2 µM [inhibitor, partial curve, poor fit]"
8,O=C(COc1ccc(F)cc1)Nc1nnc(S(=O)(=O)N2CCc3ccccc32)s1,"inconclusive: 31.6 µM [inhibitor, single point]"
9,Cc1ccc(Nc2cc(C)nc(-n3nc(C)cc3C)n2)cc1,"inconclusive: 4.47 µM [inhibitor, partial curve, poor fit]"
10,O=C(Nc1ccc(OC(F)(F)F)cc1)C1CCN(S(=O)(=O)c2ccc3[nH]c(=O)ccc3c2)CC1,"inconclusive: 28.2 µM [inhibitor, single point]"
11,COC(=O)c1ccc(CSc2nc3c([nH]c4ccccc43)c(=O)n2-c2ccc(F)cc2)o1,"inconclusive: 35.5 µM [inhibitor, partial curve, poor fit]"
12,Cc1ccccc1CN1CCc2nc(N3CCN(c4ncccn4)CC3)ncc2C1,"inconclusive: 15.8 µM [inhibitor, partial curve, poor fit]"
13,CCOc1ccccc1C(=O)Oc1c(S(=O)(=O)c2ccc(C)cc2)c(C)nn1-c1ccccc1,"inconclusive: 25.1 µM [inhibitor, single point]"
14,CCc1ccc(C2CC(=O)c3c([nH]c(C(=O)OC4CCC(C)CC4)c3C)C2)cc1 (stereo unspecified),inactive
15,Cc1ccc(S(=O)(=O)N(CC(=O)N2CCc3ccccc3C2)c2ccc(C)c(C)c2)cc1,"inconclusive: 31.6 µM [inhibitor, partial curve]"
16,CCOC(=O)c1ccccc1NC(=O)N1CCCN(S(=O)(=O)c2ccc3c(ccn3CC)c2)CC1,"inconclusive: 25.1 µM [inhibitor, partial curve, poor fit]"
17,Cc1cccc(-c2nc(CCNC(=O)c3ccccc3Br)cs2)c1,"inconclusive: 31.6 µM [inhibitor, partial curve, poor fit]"
18,CCc1ccc(CNC(=O)C2CCCN(c3nn4cc(-c5ccc(F)cc5)nc4s3)C2)cc1 (stereo unspecified),active: 3.98 µM
19,COc1ccc(-c2noc(CSc3nnc(-c4ccccc4)n3-c3ccc(F)cc3)n2)c(OC)c1,"inconclusive: 25.1 µM [inhibitor, single point]"
20,Cc1ccccc1NC(=O)Nc1ccc2nc(N3CCN(C)CC3)cc(C)c2c1,inactive
21,Cc1nc2c(c(C)nn2-c2ccccc2)c(C)c1CCC(=O)Nc1ccc(F)cc1,inactive

row,Compound,Potency
1,Cc1ccc2nc(-c3ccc(NC(=O)C(F)(F)F)cc3)sc2c1,inactive
2,CCC=CC[C@H]1C(=O)CC[C@@H]1CC(=O)OC,inactive
3,COc1ccc(N2CCN(C(=O)c3ccc(NC(=O)c4nsc5ccccc45)cc3)CC2)cc1,"inconclusive: 39.8 µM [inhibitor, single point]"
4,Oc1cccc(-c2c3nc(c(-c4cccc(O)c4)c4ccc([nH]4)c(-c4cccc(O)c4)c4nc(c(-c5cccc(O)c5)c5ccc2[nH]5)CC4)C=C3)c1,"inconclusive: 39.8 µM [inhibitor, single point]"
5,CC1CCN(S(=O)(=O)c2cc(C(=O)NCCc3ccccc3)n(C)c2)CC1,inactive
6,Cc1ccc(CNC(=O)CCn2ccc3cc(S(=O)(=O)N4CCCC4)ccc32)cc1,"inconclusive: 35.5 µM [inhibitor, single point]"
7,Cc1cccc(NC(=O)c2oc3ccc(S(=O)(=O)N(C)C4CCCCC4)cc3c2C)c1C,"inconclusive: 31.6 µM [inhibitor, single point]"
8,CCc1ccc(S(=O)(=O)N2CCN(c3ccc(Cl)c(Cl)c3)CC2)cc1,inactive
9,Nc1nc(N)c2nc(CNc3ccc(C(=O)NC(CCC(=O)O)C(=O)O)cc3)cnc2n1 (stereo unspecified),"inconclusive: 15.3 µM [inhibitor, partial curve, poor fit]"
10,O=c1cc(-c2cccc3c2Sc2ccccc2S3)oc(N2CCOCC2)c1,"inconclusive: 27.3 µM [inhibitor, single point]"
11,O=C(O)COc1ccccc1C1Nc2ccccc2-c2nnc(SCc3ccc(Cl)cc3)nc2O1 (stereo unspecified),inactive
12,COc1ccc(-n2c(SCc3nc(-c4ccc(Cl)cc4)no3)nnc2-c2ccncc2)cc1,inactive
13,COc1ccc(Nc2oc(-c3ccc(COc4ccccc4)o3)nc2C#N)cc1,inactive
14,CCOc1ccc(-c2cc(CCCC(=O)NCCc3ccc(OC)c(OC)c3)no2)cc1,"inconclusive: 0.631 µM [inhibitor, full curve, poor fit]"
15,CC(C)(C)C(=O)Nc1ccc2nc(SCCOc3ccccc3Cl)sc2c1,"inconclusive: 31.6 µM [inhibitor, single point]"
16,Cc1cccc(NC(=O)CN2C(=O)CC(c3ccccc3)Sc3ccccc32)c1 (stereo unspecified),"inconclusive: 39.8 µM [inhibitor, single point]"
17,Cc1ccc(C)c(CSc2cn(CCNC(=O)c3cccs3)c3ccccc23)c1,"inconclusive: 28.2 µM [inhibitor, single point]"
18,COc1ccc(CCN2C(=O)N(c3ccc(C)cc3)C(=O)C2CC(=O)Nc2ccc(OC)cc2)cc1 (stereo unspecified),"inconclusive: 35.5 µM [inhibitor, partial curve, poor fit]"
19,CCc1ccc(S(=O)(=O)Nc2cccc(-c3ccc(OC)nn3)c2)s1,"inconclusive: 15.8 µM [inhibitor, partial curve, poor fit]"
